± gives the standard deviation. The entries are a selection whose mix differs from that of the whole data set.
System: MIWI (PIWIL1) piRISC loaded with piRNA #1 (30 nt)
Assay: pre-steady-state target cleavage rate (min^-1); MIWI and MILI are mouse PIWI proteins and EfPiwi is from a freshwater sponge; tags in brackets are library labels; higher = faster piRNA-guided slicing of the target
Details: guide: piRNA #1 5'p-UGAGGUAGUAGGUUGUAUAGUAUCCAGAGG; auxiliary factor: 500 nM mouse GTSF1
In short: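 Cleave-'n-Seq: 1 nM active affinity-purified piRISC with one synthetic guide and 0.1 nM transcribed, DNA-blocked target RNA library were mixed, with or without 500 nM GTSF1 partner protein, in HEPES–potassium acetate buffer at 33 °C for 0–8 or 0–960 min. Uncleaved targets were sequenced and normalised to depth and to weakly complementary targets, three trials were pooled, and k3 was capped at 0.0001 min^-1. The pre-steady-state cleavage rate was fitted […].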

Row | Sequence | pre-steady-state target cleavage rate
1 | GGACAGGAUAGUAUACAACCUACUACCUCA | 0.322 ± 0.035
2 | CCUCUGGAUACAAUACAACCUAGUACCUCA | 0.265 ± 0.046
3 | GGAGACGAUACUAUACAACCUUCUACGUCA | 0.417 ± 0.07
4 | GGAGACCUUACUAUACAACCUCCUACCUCA | 0.794 ± 0.041
5 | GGACAGGAUACUAUACAUCCUACUACCUCA | 1.55 ± 0.091
6 | CCGCUGGAUACUAUACAACCUACUACCUCA | 1.88 ± 0.094
7 | GGAGUGGAAACUAUACAACCUACUACCUGA | 0.482 ± 0.098
8 | GGACUGGAUACUAUACAAGCUACUACCACA | 1.54 ± 0.088
9 | GGACUGAGAUACUAUACAACCUACUACCUCA | 1.72 ± 0.12
10 | GGAGUGGAUACCUAUACAACCUACUACCUCA | 1.25 ± 0.08
11 | GGAGUGGAUACUAUACUACCUACUAGCUCA | 0.305 ± 0.041
12 | GGAGACCUAUGAUAUGUUGCACUACCUCA | 0.003 ± 0.0019
13 | GGAGACCAUACUAUACAACCUACUACACUCA | 1.08 ± 0.083
14 | GGAGACGAUACUAUACAACCUAUCUACCUCA | 0.362 ± 0.03
15 | GGAGACCUAACUAUUCAACCUACUACCUCA | 0.665 ± 0.063
16 | GGAGACCAUACUAUACAACCUACUACCUCC [g2:g23:cont:t1C] | 1.05 ± 0.054
